In all, about 150,000 compounds went through this assay and about 540 (0.36%) showed an effect of 50% or more. Some of the results follow.
Tested on: Plasmodium falciparum
Assay: Primary screen in NF54 nanoGlo assay, in single point, at 2uM, 72h; a lower Z score goes with more inhibition
Format: functional, Erythrocyte
Details: timepoint 72 hour

SMILES	% Inhibition [%]	Z score
CCC1Oc2cc(C(C)NC(=O)N3CC=C(C)CC3)ccc2NC1=O (centres undefined)	-10	1.28
O=C(NCCc1noc2ccccc12)NC1COC(C2CC2)C1 (centres undefined)	-11	1.76
Cc1ccc(CCCNS(C)(=O)=O)cc1	-19	1.77
COc1ccc2c(c1)CCc1c-2n[nH]c1-c1ccc(C(=O)NCCCN2CCCC[C@@H]2C)cc1	-1	0.21
CCN(C[C@H]1CCN(C(=O)c2cc[nH]n2)C1)CC(F)(F)F	-8	1.23
CCOc1cccc(Cn2c(=O)c3sccc3n(CC(=O)Nc3nccs3)c2=O)c1	26	-2.88
CC[C@H](C)[C@@H]1NC(=O)N([C@H]2C[C@H](c3ccccc3C)C2)C1=O	-15	1.65
CCC(=O)Nc1cc(C(=O)N(CC)C[C@H]2CCCO2)c2c(c1)nc(Cc1ccccc1)n2C	-7	1.29
Cc1ccc(S(=O)(=O)N2CCN(S(C)(=O)=O)C2)cc1	36	-4.08
Cc1n[nH]c2ncc(NC(=O)c3scnc3C(C)(C)C)cc12	-12	1.43
NC(=O)NC(=O)C1CCC(Nc2nccs2)CC1 (centres undefined)	-3	0.31
O=C1CCCN1c1ccc(S(=O)(=O)N2CCc3[nH]c4ccccc4c3C2)cc1	-8	0.73
CCN(CC)c1cc(-n2nc(C(F)(F)F)cc2-c2ccccc2)ncn1	28	-3.15
CCc1ccc(NC(=O)N2CCC(c3ccc4cccnc4n3)CC2)cc1OC	2	-0.31
Cc1ccc(Cl)cc1NC(=O)c1cc(C2CC2)nc2onc(C3CC3)c12	5	-0.78
Cc1ccc(C(=O)N2CCO[C@@H](CC3CCCCC3)C2)c(=O)[nH]1	3	-0.54
C=CCCC(=O)Nc1cccc(-c2ncc(C)o2)c1	-14	1.34
Cc1ccc(OCC(N)=O)c(-c2cccc([C@H](C)N3CCCC3)c2)c1	1	-0.27
CC[C@H]1CCCCN1C(=O)c1cnc2nc(C)ccc2c1Nc1ccc2c(c1)OCO2	-9	1.48
O=C(NC[C@H](O)CN1CCCC1)c1conc1-c1ccccc1	-17	2.35
COc1ccc(-c2ccc(=O)n([C@H]3CCc4ccccc4NC3=O)n2)cc1	31	-3.48

SMILES	% Inhibition [%]	Z score
Cc1c(C(=O)N[C@H]2CC[C@@H](CO)C2)nnn1-c1ccc(F)c(F)c1	35	-3.91
CCN1CCN(C(=O)c2ccc(N(C)C)cc2)[C@H]2CS(=O)(=O)C[C@H]21	-11	2.11
CCO[C@H]1CN(C(=O)c2cc(C)n(C)c2C)C[C@@H]1O	0	-0.03
Cc1ccc(C(=O)N(C)c2cnn(C)c2)c(Br)c1	2	-0.22
Cc1cnccc1Cn1cc(CN2CC[S+]([O-])CC2)nn1	6	-1.17
CC(=O)N1CCC(Cc2ccc(CN(Cc3cccc(F)c3)C3CC3)cc2)CC1	-17	3.24
Cc1nn(C)c(C)c1OC(=O)OC(C)(C)C	-4	0.48
CC(C)c1ncc(C(=O)N2CCC[C@H](CCc3ccc(F)cc3F)C2)c(=O)[nH]1	-13	1.25
C[C@@H](CNC(=O)C1(C#N)CCCC1)Oc1ccccc1	-6	0.57
COC(CN(c1ccccc1)S(=O)(=O)c1ccc(F)cc1)C1CCOC1 (centres undefined)	-4	0.64
NC(=O)c1nnn(-c2ccc(NC(=O)C(c3ccccc3)c3ccccc3)cc2)n1	-7	1.26
CC1(C)COCCN1CC1CCOCC1	4	-0.45
COc1ccc(NC(=O)C(=O)c2cccn2Cc2ccc(C)cc2)c(OC)c1	-13	1.24
CC(C)NC(=O)CC1(CN2Cc3ccccc3C2=O)CCCCC1	-9	1.32
COc1ccc(-c2ccc3c(c2)C(=O)N2CC[C@H](NC(=O)C4CCCC4)[C@H]2C(=O)N3)cc1	31	-3.55
CC1=NN(c2ccccc2)C(=O)C12Cc1cc(C(F)(F)F)ccc1N1CCN(c3ncccn3)CC12 (centres undefined)	4	-0.52
COCCNC(=O)NCCn1nc(C2CC2)ccc1=O	-14	2.89
O=C(c1ccc2c(c1)OCCO2)N1CCN(Cc2ccccc2)CC1	-6	0.72
c1ccc(-c2ccc(-c3nc4nc(-c5ccccc5)c(-c5ccccc5)nn4c3-c3ccccc3)cc2)cc1	-17	1.82
CC(NS(=O)(=O)c1ccc2c(c1)OCCCO2)C1CCCO1 (centres undefined)	-3	0.44
CCC(=O)N1CCc2c(C(=O)NCc3ccc(N4CCN(C)CC4)cc3)cccc21	2	-0.19

SMILES	% Inhibition [%]	Z score
CC1(C)CC(NC2CCN(C3CCCC3)C2)CO1 (centres undefined)	11	-1.32
CC(C)(C)c1nc([C@H]2CC23CCC3)n(CCO)n1	0	0.01
CC(O)(CNC(=O)C1CC(=O)N(c2ccccc2Br)C1)CN1CCOCC1 (centres undefined)	-3	0.47
O=C(Nc1ccccc1OC[C@H]1CCCCO1)N1CCOCC1	34	-0.78
Cc1ncc(CNC(=O)N2CCC3(C=Cc4ccccc4O3)CC2)o1	-17	1.81
CCc1noc(C)c1COc1cnn(C)c1	-3	0.45
O=C(COC[C@H]1CCCO1)N1CCC2(CCC(=O)N(Cc3ccccn3)C2)CC1	4	-0.67
CC(C)CCNC(=O)[C@]1(C)Cn2nc(C(=O)NCc3ccccc3F)cc2C(=O)N1C	15	-1.76
CC1CN(S(=O)(=O)CC2CCOC2)c2ccc(F)cc2O1 (centres undefined)	39	-5.6
CNC(=O)c1nc(CN2CCO[C@@H](CCCc3ccccc3)C2)no1	-15	3.1
CCCN1CCCn2nc(CNC(=O)Nc3ccc(C)cc3C)cc2C1	-11	1.62
Cc1nnc(-c2cccc(NC(=O)C3CCN(C(=O)C#Cc4ccccc4)CC3)c2)s1	-6	0.87
CCOC(=O)[C@H]1CCCN(c2nccn3nc(-c4ccccc4C)cc23)C1	-5	0.68
CC1C(C)N(C(=O)c2cn(C)nn2)C(C)CN1C(=O)OC(C)(C)C (centres undefined)	-5	1.04
CCOc1ccccc1CN1C[C@H]2CC[C@@H](C1)N(CC(=O)N(C)C)C2=O	9	-1.19
CCC[N+](C)(C)C(C)C(OC(C)=O)c1ccccc1 (centres undefined)	4	-0.47
CC(C(=O)Nc1ccc2c(c1)C(O)CC2(C)C)N(C)CC(F)(F)F (centres undefined)	-2	0.47
CC1CN(C(=O)Nc2ccc(Oc3ccncc3)cc2)CC(C)O1 (centres undefined)	-13	1.16
O=C(c1nc(=O)[nH]c2ccccc12)N1CCC(c2nccn2CC2CC2)CC1	-8	0.77
CC(=O)Nc1cccc(NC(=O)C2CCN(S(=O)(=O)Cc3ccccc3F)CC2)c1	-6	1.17
CCOCCCNC(=O)N[C@@H](C)CCc1ccc(OC)cc1	-10	0.92

SMILES	% Inhibition [%]	Z score
Cc1[nH]ncc1C(=O)N(Cc1cccnc1)Cc1ccco1	-8	0.66
O=C1CCCN1[C@H]1CCCN(c2nccc3c(=O)[nH]cnc23)CC1	-3	0.32
O=C1CCC[C@H](C(=O)Nc2cnn(CC(F)(F)F)c2)N1	31	-0.52
CN(Cc1ccc2cn[nH]c2c1)[C@H]1CCCN(Cc2ccc3cn[nH]c3c2)CC1	9	-1.4
CCO[C@@H](C)C(=O)NCc1sc(C)nc1CC	-9	1.13
COCc1cccc(C(=O)Nc2ccc(-n3ccnc3)cc2)c1	-3	0.34
C[C@@H](NC(=O)c1ccccc1F)c1ccccc1	42	-1.57
CNC(=O)CN1CCC(CN(C)c2nnc(C(C)(C)C)s2)CC1	-4	0.34
CC[C@@H](CO)N1CCN(S(=O)(=O)c2cccc(NC(=O)c3oc(C)nc3C)c2)CC1	11	-1.47
O=C(O)[C@@H]1CC2(CCN(C(=O)c3cc(Cl)ccc3F)CC2)CN1	1	-0.23
c1ccc(-c2coc(CNCCc3nnc4n3CCC4)c2)cc1	3	-0.64
CC12CCC(C(=O)Nc3ncc(Cl)cc3Cl)(CC1O)C2(C)C (centres undefined)	-7	0.95
Nc1cc(N2CCC3(CC2)C[C@@H](c2ccccc2)C(=O)N(C2CC2)C3)ncn1	-5	1.14
O=C(CN1C(=O)c2cc(Cl)c(Cl)cc2C1=O)Nc1cccc(S(=O)(=O)N2CCCC2)c1	-13	1.26
Cc1cnc(C)c(-c2ccc(C(=O)N3CCN(c4cnccn4)CC3)cc2)n1	-1	0.22
COc1cc(C(=O)NCCNC(=O)c2nc(-c3ccc(F)cc3)no2)cc(OC)c1OC	-5	0.62
FC(F)(F)c1ccccc1C1(NCc2ccc3cn[nH]c3c2)CC1	-8	1.05
Cc1cc(F)c(C(=O)NC[C@H](Cc2cnn(C)c2)C(N)=O)cc1F	-7	0.72
CC(C)c1cc(CN2CCC[C@H]2c2nccs2)no1	-6	1.1

Source: ChEMBL document CHEMBL4888484, “Replenishing the malaria drug discovery pipeline: Screening and hit evaluation of the MMV Hit Generation Library 1 (HGL1) against asexual blood stage Plasmodium falciparum ,using a nano luciferase reporter read-out” (2022)
